In PubChem BioAssay AID1345083 (National Center for Advancing Translational Sciences (NCATS), 2018):
Where “and” joins values, the source holds several entries; their conditions need not be identical. Equal entries are not always repeated. The whole screen tested about 94,000 compounds, of which about 6,200 (6.6%) were called active. Inconclusive results, whose numbers are uncertain, are shown with a selection of clear calls. Calls follow the shape of the dose curve; as a rule, active = well fitted inhibition curve with a large enough effect; inconclusive = small, poorly fitted or top-dose-only effect; inactive = flat fitted curve, though single readings scatter. Potencies of inconclusive entries are doubtful fits and often do not repeat.

Test: Cytotoxic Profiling in HEK 293 Cell Line of Diverse Libraries Using Quantitative High-Throughput Screening; also: nearly all actives have a fitted effect of over 60% in size
Details: HEK 293 viability, ATP luminescence (CellTiter-Glo), 48-72 h; activity change, negative = cytotoxicity: at 115 µM (top of the series) unless noted; series mostly up to 115 µM
Method in brief: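 HEK 293 seeded at 250 cells/well receive compound via pintool. After 48 or 72 hr at 37 degree Celsius, 5% CO2 and 95% humidity, CellTiter-Glo is dispensed and luminescence read following 10 min at room temperature.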
% is scaled to controls: 0 for no effect and ±100 for the full control effect; potency is read from the fitted curve at half-maximal effect; tags tell the direction and shape of the fitted curve.

Row | Compound | Potency | activity change, negative = cytotoxicity | outcome
1 | O=C(Nc1cc(F)c(F)c(F)c1)N1CCC(OC2CCN(Cc3ccccc3)CC2)CC1 | inconclusive: 50.1 µM [inhibitor, partial curve, poor fit] |  | 
2 | CN(Cc1ccccc1)C(=O)C[C@@H]1CCNC[C@@H]1Cc1cc(COc2ccccc2)on1 | active: 50.1 µM |  | 
3 | CC(c1cccs1)N(C)C(=O)c1cccc(Cl)c1 (stereo not drawn) | active: 100 µM |  | 
4 | FC(F)(F)c1cccc(C2=NOC3(CCCN(Cc4cccs4)C3)C2)c1 (stereo not drawn) | inconclusive: 50.1 µM [inhibitor, partial curve, poor fit] |  | 
5 | N#Cc1cccc(-c2cn3c(n2)N(C(=O)CC2CCCC2)CCC3)c1 | inconclusive: 39.8 µM [inhibitor, partial curve] |  | 
6 | Cc1cccc(-c2cccc(CN3CCC(N[S+](=O)([O-])c4c(C)noc4C)CC3)c2)c1 | active: 28.2 µM |  | 
7 | O=C(C1CCOCC1)N1CCOC[C@H](Oc2ccc(C(F)(F)F)cc2)C1 | inconclusive: 89.1 µM [inhibitor, partial curve, poor fit] |  | 
8 | CS(=O)(=O)c1ccc(CN2CCC3(CCNCC3)C2)cc1 |  | inactive: -19.9% | 
9 | C=CCOc1c(OC)ccc2c1CN(Cc1ccccc1)C(=O)CCN2CC(O)Cc1ccccc1 (stereo not drawn) | active: 50.1 µM |  | 
10 | COc1cccc(N2CCN(C(=O)c3cc4c(s3)CN(C3CCCC3)C4)CC2)c1 | inconclusive: 79.4 µM [inhibitor, single point] |  | 
11 | COc1cc(C(=O)N2C[C@@H](C)[C@@](C)(O)C2)ccn1 |  | inactive: 0.344% | 
12 | CC(=O)N1CCn2c(nnc2C2CCCN2Cc2cnn(C(C)C)c2)C1 (stereo not drawn) |  | inactive: -15.3% | 
13 | CCn1c(C)c(CN2CCc3nc(N(C)C)[nH]c(=O)c3CC2)c2ccccc21 | inconclusive: 56.2 µM [inhibitor, partial curve, poor fit] |  | 
14 | CN1CC(=O)N(c2ccccc2F)Cc2c(NCCc3ccccc3)ncnc21 | active: 44.7 µM |  | 
15 | CC(C)CNC(=O)c1cc2n(n1)CC(c1ccc3c(c1)OCO3)OC2 (stereo not drawn) | active: 44.7 µM |  | 
16 | Cc1cc(C)c(CNC(=O)c2nc(-c3ccccc3)cc3[nH]ccc23)c(=O)[nH]1 | inconclusive: 56.2 µM [inhibitor, full curve] |  | 
17 | Cc1ccc([S+](=O)([O-])N2CCC3(C2)C(=O)N(CCc2ccccc2)c2ccccc23)cc1 (stereo not drawn) | inconclusive: 35.5 µM [inhibitor, full curve] and inconclusive: 25.1 µM [inhibitor, full curve, poor fit] |  | 
18 | Cc1ccccc1CN1CCc2nc(N(C)Cc3cccnc3)[nH]c(=O)c2CC1 | inconclusive: 35.5 µM [inhibitor, full curve, poor fit] |  | 
19 | CC1(CCCCc2ccccc2)COc2ccc(C(=O)N3CC[S+](=O)([O-])CC3)cc2N1 (stereo not drawn) | inconclusive: 56.2 µM [inhibitor, partial curve, poor fit] |  | 
20 | COCC1CN(C2CCC2)CC12CCN(C(=O)c1ccc(OC)cc1OC)CC2 (stereo not drawn) | inconclusive: 89.1 µM [inhibitor, single point] |  | 
21 | CCOc1ccc(-c2cnc(-c3cnc(CC)nc3)[nH]2)cc1OCC | inconclusive: 39.8 µM [inhibitor, full curve, poor fit] |  | 

Row | Compound | Potency | activity change, negative = cytotoxicity | outcome
22 | COc1ncccc1-c1nc2cc(C(=O)Nc3ccc(F)cc3)ccc2o1 | inconclusive: 3.16 µM [inhibitor, full curve, poor fit] |  | 
23 | COc1ccc(-c2ccc(C(=O)NC3CC3)c(Cl)c2)nn1 | inconclusive: 100 µM [inhibitor, partial curve, poor fit] |  | 
24 | O=C(Cc1ccc(F)cc1)N1CCN(c2nccc(Nc3ccccc3F)n2)CC1 | active: 17.8 µM |  | 
25 | CC1=NOC2(CCN(C(=O)c3ccccn3)C2)C1 (stereo not drawn) |  | inactive: -12.5% [at 172 µM] | 
26 | CC(=O)Nc1cccc(-c2ccc3c(n2)CN(Cc2ccccc2)C(=O)CO3)c1 | inconclusive: 100 µM [inhibitor, partial curve] |  | 
27 | Cc1nn(-c2ccccc2)c(Oc2ccccc2F)c1CCC(=O)N1CCSCC1 | active: 35.5 µM |  | 
28 | C#CCNC(=O)C1CCN(c2nccc(Nc3ccccc3OC)n2)CC1 | inconclusive: 63.1 µM [inhibitor, full curve, poor fit] |  | 
29 | Cn1ncc2c(NCc3noc(-c4cccs4)n3)nc(C(C)(C)C)nc21 | inconclusive: 44.7 µM [inhibitor, partial curve, poor fit] |  | 
30 | CC1=C[C@@H](CNS(=O)(=O)Cc2ccccc2)[C@H](C(C)C)C[C@H]1CC(=O)NCc1ccccn1 | inconclusive: 79.4 µM [inhibitor, partial curve, poor fit] |  | 
31 | NCC(=O)N1Cc2ccccc2CC2(CCCN(CC3CCCC3)C2)C1 (stereo not drawn) | inconclusive: 56.2 µM [inhibitor, partial curve, poor fit] |  | 
32 | CC(=O)c1ccc(NC(=O)Cn2ccn3nc4c(c3c2=O)CCCC4)cc1 |  | inactive: -1.47% | 
33 | C=CCc1ccccc1OCCN(C)Cc1ccc(S(C)(=O)=O)cc1 | active: 39.8 µM |  | 
34 | Cc1cc(C(=O)N2CCCCCCNC(=O)[C@@H]3C[C@@H](c4nc(Cc5ccccc5)no4)C[C@@H]32)n(C)n1 |  | inactive: -0.98% | 
35 | COc1ccc(-c2cc(-c3cccc(CO)c3)cn3cncc23)cc1 | active: 79.4 µM |  | 
36 | Nc1ncccc1CN1CCc2ncc(C(=O)NCCOc3ccccc3)n2CC1 | inconclusive: 79.4 µM [inhibitor, partial curve, poor fit] |  | 
37 | CN(C)CCN(C)[C@H]1[C@@H]2OC[C@@H](O2)[C@@H](NCc2ccc(OC(F)(F)F)cc2)[C@@H]1O | inconclusive: 28.2 µM [inhibitor, full curve, poor fit] |  | 
38 | O=C(NCC1Cn2cccc2C(=O)N1Cc1ccccc1)Nc1ccccc1F (stereo not drawn) | inconclusive: 89.1 µM [inhibitor, single point] |  | 
39 | COc1ccc(CN2CCOC[C@H](Oc3ccccc3)C2)cc1 | inconclusive: 100 µM [inhibitor, partial curve, poor fit] |  | 
40 | O=C(Nc1ccc(Cl)cc1)N1CCC(C(=O)N2CCC(c3ccccc3)CC2)CC1 | inconclusive: 50.1 µM [inhibitor, partial curve, poor fit] |  | 
41 | O=C(NCc1cccc(Cl)c1)c1cc2c(s1)CCN(C(=O)c1ccccc1)C2 | inconclusive: 35.5 µM [inhibitor, partial curve] |  | 
42 | COc1cccc(CN2Cc3cc(NC(=O)c4ccccc4)ccc3OC(C)C2=O)c1OC (stereo not drawn) | inconclusive: 39.8 µM [inhibitor, partial curve, poor fit] |  | 

Row | Compound | Potency | activity change, negative = cytotoxicity | outcome
43 | COc1ccc(C2(C(=O)N3CCCC(c4nc(-c5ccccc5)no4)CCNC(=O)CC3)CC2)cc1 (stereo not drawn) | inconclusive: 79.4 µM [inhibitor, single point] |  | 
44 | CCOC(=O)C1=C(C)N=C2SC=C(CC(=O)NC3CC3)N2C1c1ccccc1C (stereo not drawn) | inconclusive: 50.1 µM [inhibitor, partial curve, poor fit] |  | 
45 | O=C(NC1CCCC1)O[C@H]1COCCN(c2nc3ccccc3o2)C1 |  | inactive: -0.613% [at 172 µM] | 
46 | Cc1noc(C)c1C(=O)N1Cc2ccccc2CC2(CCN(CC3CCNC3)CC2)C1 (stereo not drawn) |  | inactive: -2.39% | 
47 | CCNc1ncnc2sc3c(c12)CCN(Cc1ccco1)C3 | inconclusive: 89.1 µM [inhibitor, single point] |  | 
48 | O=C(c1cnn2cccnc12)N(Cc1ccncc1)Cc1cccc(OCCc2ccc(F)cc2)c1 | inconclusive: 44.7 µM [inhibitor, partial curve, poor fit] |  | 
49 | O=C(CCc1cccnc1)N1CCCC(CCc2cccc(F)c2)C1 (stereo not drawn) | inconclusive: 39.8 µM [inhibitor, full curve, poor fit] |  | 
50 | Cc1nn(CC(=O)NCc2ccc(N(C)C)cc2)c(=O)c2nc(C(C)C)sc12 |  | inactive: -0.593% | 
51 | CC(C)C1=NOC2(CCN(C(=O)c3ccccc3F)C2)C1 (stereo not drawn) |  |  | inactive [at 172 µM]
52 | COCc1nc(CCNC(=O)c2cnn3c(C)c(Cc4ccccc4Cl)c(C)nc23)no1 | inconclusive: 50.1 µM [inhibitor, partial curve, poor fit] |  | 
53 | O=C(NC1CCCc2c1[nH]c1c(Cl)cccc21)c1ccc2c(c1)OCO2 (stereo not drawn) | inconclusive: 10 µM [inhibitor, full curve, poor fit] |  | 
54 | CC(C)CCNC(=O)N1CCCC(c2noc(COc3ccccc3)n2)C1 (stereo not drawn) | inconclusive: 44.7 µM [inhibitor, partial curve, poor fit] |  | 
55 | COc1cccc(CCC(=O)N2CCN(c3cc(-c4ccccc4)[nH]n3)CC2)c1 | inconclusive: 50.1 µM [inhibitor, partial curve, poor fit] |  | 
56 | N#Cc1ccc(-c2nc(C3CC(=O)N(c4ccc(F)cc4)C3)no2)cc1 (stereo not drawn) | inconclusive: 50.1 µM [inhibitor, partial curve, poor fit] |  | 
57 | CCOCCNC(=O)c1cc(-c2cccc(OC)c2)nc2c1cnn2C | inconclusive: 89.1 µM [inhibitor, single point] |  | 
58 | COc1cccc(CN2CCCC(Cc3ncc(C)n3Cc3ccc(F)cc3)C2)c1 (stereo not drawn) | inconclusive: 50.1 µM [inhibitor, partial curve, poor fit] |  | 
59 | CSc1ccc(-c2cccc(C(=O)NCC(=O)NCCCc3ccccc3)c2)cc1 | inconclusive: 20 µM [inhibitor, full curve, poor fit] |  | 
60 | COc1cc(NC(=O)Cn2c(-c3ccc(F)cc3)nc(C)cc2=O)cc(OC)c1 | inconclusive: 44.7 µM [inhibitor, partial curve, poor fit] |  | 
61 | COc1cccc(CN2CCCOCCNC(=O)CC2)c1 |  | inactive: -8.4% | 
62 | O=C(Nc1cc(F)c(F)c(F)c1)N1CC2CC(C1)[C@H]1CCCC(=O)N1C2 (stereo partly drawn) |  | inactive: 4.85% | 
63 | COc1cccc(C(=O)N2CCC(n3cc(-c4nc(-c5ccccc5)no4)nn3)CC2)c1OC | inconclusive: 50.1 µM [inhibitor, partial curve, poor fit] |  | 
